The other results are listed elsewhere or left out.
Each sequence was assayed against T1, MBP-FoxP1dN (Mus musculus, UniProt P58462 326-579) (assay: PD-seq (MBP pull-down with sequencing); 20 mM Tris-HCl pH 7.5, 100 mM NaCl, 1.5 mM MgCl2, 0.4 uM protein, 0.1 uM dsDNA library, 30 min, room temperature, amylose pull-down; high values mean tight binding). Conditions: protein: recombinant; tags: His6-MBP; chain copies: 2; dsDNA, one strand shown.
T1 sequence: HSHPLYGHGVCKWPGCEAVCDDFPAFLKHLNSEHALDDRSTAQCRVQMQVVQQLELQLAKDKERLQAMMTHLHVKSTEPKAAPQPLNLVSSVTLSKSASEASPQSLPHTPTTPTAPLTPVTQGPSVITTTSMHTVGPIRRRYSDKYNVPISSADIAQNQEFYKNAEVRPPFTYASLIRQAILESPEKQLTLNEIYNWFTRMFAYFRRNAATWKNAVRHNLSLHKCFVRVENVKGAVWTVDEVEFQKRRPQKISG
Method in brief: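 Mouse FoxP3 or FoxP1 fragment lacking the N-terminus, His6-MBP-tagged and expressed in E. coli, was incubated at 0.4 µM with 0.1 µM Klenow-filled degenerate double-stranded DNA library for 30 min at room temperature in Tris pH 7.5 buffer with NaCl and MgCl2. Complexes captured on amylose resin were washed three times and their DNA sequenced on Illumina. Binding is reads-per-million enrichment of pull-down over input, replicates pooled.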

First: GATGATTGTTCTCCCAGCTGATGAATTAGTTCTATCGAGTAAACAAATTTTCCTAATCTTTCTGTTCAAGCGCCATCTAC
Second: GATGATTGTTCTCCCAGCTGATGAATTCATCATCTCGAGTAAACAAATTTTCCTAATCTTTCTGTTCAAGCGCCATCTAC
The binding signal of the first is higher: 0.895 RPM ratio (pull-down/input) for the first, 0.841 RPM ratio (pull-down/input) for the second.

Going from “GATGATTGTTCTCCCAGCTGATGAATTGAGGGCGTCGAGTAAACAAATTTTCCTAATCTTTCTGTTCAAGCGCCATCTAC” to “GATGATTGTTCTCCCAGCTGATGAATTCACAAGCTCGAGTAAACAAATTTTCCTAATCTTTCTGTTCAAGCGCCATCTAC”, the binding signal rises from 0.822 RPM ratio (pull-down/input) to 0.878 RPM ratio (pull-down/input).

Going from “GATGATTGTTCTCCCAGCTGATGAATTTCGAGCATCGAGTAAACAAATTTTCCTAATCTTTCTGTTCAAGCGCCATCTAC” to “GATGATTGTTCTCCCAGCTGATGAATTCTAATGATCGAGTAAACAAATTTTCCTAATCTTTCTGTTCAAGCGCCATCTAC”, the binding signal rises from 0.954 RPM ratio (pull-down/input) to 0.963 RPM ratio (pull-down/input).

Compared with “GATGATTGTTCTCCCAGCTGATGAATTAAATGCTTCGAGTAAACAAATTTTCCTAATCTTTCTGTTCAAGCGCCATCTAC”, “GATGATTGTTCTCCCAGCTGATGAATTAATAAGATCGAGTAAACAAATTTTCCTAATCTTTCTGTTCAAGCGCCATCTAC” is lower in binding signal: 1.15 RPM ratio (pull-down/input) for the first, 1.03 RPM ratio (pull-down/input) for the second.

First: GATGATTGTTCTCCCAGCTGATGAATTTCGGATCTCGAGTAAACAAATTTTCCTAATCTTTCTGTTCAAGCGCCATCTAC
Second: GATGATTGTTCTCCCAGCTGATGAATTATAGTCATCGAGTAAACAAATTTTCCTAATCTTTCTGTTCAAGCGCCATCTAC
The binding signal of the first is lower: 0.769 RPM ratio (pull-down/input) for the first, 1.06 RPM ratio (pull-down/input) for the second.

Going from “GATGATTGTTCTCCCAGCTGATGAATTGGGCGCGTCGAGTAAACAAATTTTCCTAATCTTTCTGTTCAAGCGCCATCTAC” to “GATGATTGTTCTCCCAGCTGATGAATTGTTATTCTCGAGTAAACAAATTTTCCTAATCTTTCTGTTCAAGCGCCATCTAC”, the binding signal rises from 1.01 RPM ratio (pull-down/input) to 2.03 RPM ratio (pull-down/input).

Going from “GATGATTGTTCTCCCAGCTGATGAATTAAGCGCATCGAGTAAACAAATTTTCCTAATCTTTCTGTTCAAGCGCCATCTAC” to “GATGATTGTTCTCCCAGCTGATGAATTAGGGGTATCGAGTAAACAAATTTTCCTAATCTTTCTGTTCAAGCGCCATCTAC”, the binding signal falls from 1.27 RPM ratio (pull-down/input) to 0.939 RPM ratio (pull-down/input).

First: GATGATTGTTCTCCCAGCTGATGAATTCGCGAACTCGAGTAAACAAATTTTCCTAATCTTTCTGTTCAAGCGCCATCTAC
Second: GATGATTGTTCTCCCAGCTGATGAATTGGGAAAATCGAGTAAACAAATTTTCCTAATCTTTCTGTTCAAGCGCCATCTAC
The binding signal of the first is lower: 0.828 RPM ratio (pull-down/input) for the first, 1.02 RPM ratio (pull-down/input) for the second.

Compared with “GATGATTGTTCTCCCAGCTGATGAATTCTGCCCCTCGAGTAAACAAATTTTCCTAATCTTTCTGTTCAAGCGCCATCTAC”, “GATGATTGTTCTCCCAGCTGATGAATTACGAGGATCGAGTAAACAAATTTTCCTAATCTTTCTGTTCAAGCGCCATCTAC” is higher in binding signal: 0.764 RPM ratio (pull-down/input) for the first, 0.932 RPM ratio (pull-down/input) for the second.

Going from “GATGATTGTTCTCCCAGCTGATGAATTGCGAGGGTCGAGTAAACAAATTTTCCTAATCTTTCTGTTCAAGCGCCATCTAC” to “GATGATTGTTCTCCCAGCTGATGAATTCTAGCCTTCGAGTAAACAAATTTTCCTAATCTTTCTGTTCAAGCGCCATCTAC”, the binding signal rises from 0.883 RPM ratio (pull-down/input) to 0.921 RPM ratio (pull-down/input).

Going from “GATGATTGTTCTCCCAGCTGATGAATTTAACAAATCGAGTAAACAAATTTTCCTAATCTTTCTGTTCAAGCGCCATCTAC” to “GATGATTGTTCTCCCAGCTGATGAATTACGGTTTTCGAGTAAACAAATTTTCCTAATCTTTCTGTTCAAGCGCCATCTAC”, the binding signal falls from 1.19 RPM ratio (pull-down/input) to 1.01 RPM ratio (pull-down/input).

First: GATGATTGTTCTCCCAGCTGATGAATTCGATGGTTCGAGTAAACAAATTTTCCTAATCTTTCTGTTCAAGCGCCATCTAC
Second: GATGATTGTTCTCCCAGCTGATGAATTTCTGATGTCGAGTAAACAAATTTTCCTAATCTTTCTGTTCAAGCGCCATCTAC
The binding signal of the first is lower: 0.885 RPM ratio (pull-down/input) for the first, 1.23 RPM ratio (pull-down/input) for the second.

Compared with “GATGATTGTTCTCCCAGCTGATGAATTGCATTCATCGAGTAAACAAATTTTCCTAATCTTTCTGTTCAAGCGCCATCTAC”, “GATGATTGTTCTCCCAGCTGATGAATTGACCACTTCGAGTAAACAAATTTTCCTAATCTTTCTGTTCAAGCGCCATCTAC” is lower in binding signal: 1.46 RPM ratio (pull-down/input) for the first, 0.948 RPM ratio (pull-down/input) for the second.

Compared with “GATGATTGTTCTCCCAGCTGATGAATTGAGATTGTCGAGTAAACAAATTTTCCTAATCTTTCTGTTCAAGCGCCATCTAC”, “GATGATTGTTCTCCCAGCTGATGAATTAAACACATCGAGTAAACAAATTTTCCTAATCTTTCTGTTCAAGCGCCATCTAC” is higher in binding signal: 1.05 RPM ratio (pull-down/input) for the first, 1.45 RPM ratio (pull-down/input) for the second.

Compared with “GATGATTGTTCTCCCAGCTGATGAATTAATGAACTCGAGTAAACAAATTTTCCTAATCTTTCTGTTCAAGCGCCATCTAC”, “GATGATTGTTCTCCCAGCTGATGAATTTAAGCACTCGAGTAAACAAATTTTCCTAATCTTTCTGTTCAAGCGCCATCTAC” is higher in binding signal: 0.838 RPM ratio (pull-down/input) for the first, 0.988 RPM ratio (pull-down/input) for the second.

Going from “GATGATTGTTCTCCCAGCTGATGAATTAGGCGCATCGAGTAAACAAATTTTCCTAATCTTTCTGTTCAAGCGCCATCTAC” to “GATGATTGTTCTCCCAGCTGATGAATTTTCCAGTTCGAGTAAACAAATTTTCCTAATCTTTCTGTTCAAGCGCCATCTAC”, the binding signal falls from 1.26 RPM ratio (pull-down/input) to 0.874 RPM ratio (pull-down/input).
